{"source": "PubChem BioAssay AID1460", "about": "(National Center for Advancing Translational Sciences (NCATS), 2008)", "note": "Out of some 270,000 compounds screened, about 5,800 (2.1%) were called active. Inconclusive results, whose numbers are uncertain, are shown with a selection of clear calls. The call rests on the fitted dose curve; in most records, active means well fitted inhibition curve with a large enough effect; inconclusive means small, poorly fitted or top-dose-only effect; inactive means flat fitted curve, though single readings scatter. A potency beside an inconclusive call is a rough fit, not a confirmed value."}
{"biological_target": "Microtubule-associated protein tau (Homo sapiens) (UniProt P10636)", "sequence (P10636 whole entry, looked up, the tested form may be a part)": "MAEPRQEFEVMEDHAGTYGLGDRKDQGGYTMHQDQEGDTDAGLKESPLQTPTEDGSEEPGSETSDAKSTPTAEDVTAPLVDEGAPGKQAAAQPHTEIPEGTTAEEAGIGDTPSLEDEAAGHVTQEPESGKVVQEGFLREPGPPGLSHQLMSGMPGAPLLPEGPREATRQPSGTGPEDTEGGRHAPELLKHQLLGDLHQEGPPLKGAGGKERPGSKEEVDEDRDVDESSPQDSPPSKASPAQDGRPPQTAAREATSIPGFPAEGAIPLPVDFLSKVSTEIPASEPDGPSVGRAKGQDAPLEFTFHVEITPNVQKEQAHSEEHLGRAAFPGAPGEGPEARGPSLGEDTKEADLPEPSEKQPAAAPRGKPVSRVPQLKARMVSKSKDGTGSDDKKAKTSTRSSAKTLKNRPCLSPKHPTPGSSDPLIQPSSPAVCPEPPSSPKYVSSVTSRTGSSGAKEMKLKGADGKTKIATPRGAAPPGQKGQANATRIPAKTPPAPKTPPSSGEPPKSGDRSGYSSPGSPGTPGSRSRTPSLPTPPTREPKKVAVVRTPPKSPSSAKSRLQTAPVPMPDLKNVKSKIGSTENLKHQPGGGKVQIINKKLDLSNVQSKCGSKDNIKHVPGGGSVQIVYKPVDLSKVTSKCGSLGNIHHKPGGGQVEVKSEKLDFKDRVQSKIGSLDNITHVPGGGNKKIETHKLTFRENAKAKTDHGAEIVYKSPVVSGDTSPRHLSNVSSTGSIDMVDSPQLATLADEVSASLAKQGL", "assay": "qHTS for Inhibitors of Tau Fibril Formation, Thioflavin T Binding; further: nearly all actives have a fitted effect of over 55% in size; further: potency means the concentration at half of the fitted maximal effect; tags describe the fitted curve by direction and shape; on activity, negative = inhibition: on the % scale 0 is the no-effect control and ±100 the full control effect", "details": "recombinant tau K18 P301L (four-repeat tau fragment), heparin-induced fibrillization, ThT fluorescence; series mostly up to 57.4 µM; activity, negative = inhibition: at the top concentration", "procedure,_shortened": "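In this qHTS, human K18 P301L tau is incubated with compound and heparin for 6 hr at 37 C, and Thioflavin T fluorescence then reports fibril load.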"}
{"compound": "Cc1ccc2c(c1)C(c1ccccc1)N(C(=O)c1ccc(Br)o1)CC(=O)N2", "note": "(stereo not given)", "activity, negative = inhibition": "inactive: -10.8%"}
{"compound": "CCc1cccc(C)c1NS(=O)(=O)c1ccc2c(c1)NC(=O)C(C)C(=O)N2", "note": "(stereo not given)", "activity, negative = inhibition": "inactive: 1.39%"}
{"compound": "CC1(C)CC(=O)N(c2ccccc2)C1(C)O", "note": "(stereo not given)", "activity, negative = inhibition": "inactive: -7.98%"}
{"compound": "O=C(Nc1ccc(N2CCN(C(=O)c3ccccc3)CC2)cc1)c1cc2ccccc2o1", "Potency": "inconclusive: 3.16 µM [inhibitor, full curve]"}
{"compound": "CCOC(=O)C(CSCc1ccccc1)NC(=O)OC(C)(C)C", "note": "(stereo not given)", "Potency": "inconclusive: 39.8 µM [inhibitor, partial curve, poor fit]"}
{"compound": "Cc1cccc(-n2cnc3c(c2=O)c2nc4ccccc4nc2n3Cc2ccco2)c1", "Potency": "inconclusive: 14.1 µM [inhibitor, partial curve]"}
{"compound": "COC(=O)c1c(C)[nH]c(C(=O)/C=C/c2ccc(Cl)cc2)c1C", "Potency": "inconclusive: 3.16 µM [inhibitor, full curve]"}
{"compound": "Cc1ccc2c(c1)-c1c(cnn1CC(=O)N1CCN(c3cccc(C(F)(F)F)c3)CC1)CO2", "Potency": "inconclusive: 44.7 µM [inhibitor, single point]"}
{"compound": "CCOC(=O)NC(=S)Nc1cccc(NC(=S)NC(=O)OCC)c1", "activity, negative = inhibition": "inactive: -1.6%"}
{"compound": "N#C/C(=C\\Nc1ccccc1SC(F)(F)F)c1nc(-c2ccc(F)cc2)cs1", "Potency": "inconclusive: 1.26 µM [activator, full curve, poor fit]"}
{"compound": "COc1ccc(NC(=O)C(=O)N/N=C/c2cccnc2)cc1", "Potency": "inconclusive: 10 µM [inhibitor, partial curve, poor fit]"}
{"compound": "Nc1nc2ccccc2n1/N=C/c1ccc([N+](=O)[O-])s1", "Potency": "inconclusive: 1.41 µM [inhibitor, full curve]"}
{"compound": "COc1ccc(NCc2nnc(SCC(=O)Nc3cccc(C)c3)o2)cc1", "Potency": "inconclusive: 15.8 µM [inhibitor, partial curve]"}
{"compound": "Cc1ccc(N2CCN(/N=C/C(Cl)=C/c3ccccc3)CC2)cc1", "Potency": "inconclusive: 2 µM [inhibitor, full curve]"}
{"compound": "NC(=O)c1ccc[n+]([C@@H]2OC(COP(=O)([O-])OP(=O)(O)OCC3OC(n4cnc5c(N)ncnc54)C(OP(=O)(O)O)C3O)C(O)C2O)c1", "note": "(stereo not given in full)", "Potency": "inconclusive: 39.8 µM [inhibitor, partial curve, poor fit]"}
{"compound": "Cc1nc2sc(C(c3ccco3)N3CCN(C(c4ccccc4)c4ccccc4)CC3)c(O)n2n1", "note": "(stereo not given)", "activity, negative = inhibition": "inactive: 10.4%"}
{"compound": "O=C(CSc1nnc2c(Cl)cc(Cl)cn12)N1CCN(c2ccc(F)cc2)CC1", "Potency": "inconclusive: 15.8 µM [inhibitor, partial curve]"}
{"compound": "COc1ccc(C(=O)COC(=O)CCCC(=O)Nc2ccc(C(C)=O)cc2)cc1", "Potency": "inconclusive: 3.16 µM [inhibitor, partial curve, poor fit]"}
{"compound": "CCOC(=O)c1ccc(Nc2cc(C)nc3ncnn23)cc1", "activity, negative = inhibition": "inactive: -0.239%"}
{"compound": "CCC(C)(C)c1ccc(OCCCC[n+]2ccc(C)cc2)c(C(C)(C)CC)c1", "Potency": "inconclusive: 31.6 µM [inhibitor, partial curve]"}
{"compound": "Nc1nn(-c2cccc(F)n2)cc1-c1ccc(Cl)cc1", "Potency": "inconclusive: 6.31 µM [inhibitor, full curve]"}
{"compound": "CCOc1ccc(S(=O)(=O)Nc2nc3ccccc3nc2Nc2ccc(N3CCOCC3)cc2)cc1", "Potency": "inconclusive: 7.94 µM [inhibitor, partial curve]"}
{"compound": "COC(=O)C1CCN(c2nc3ccccc3nc2C(C#N)C(=O)OCC(C)C)CC1", "note": "(stereo not given)", "Potency": "inconclusive: 11.2 µM [inhibitor, partial curve]"}
{"compound": "CSc1ccc(CNC(=O)c2ccc3c(c2)N(C)C(=O)C2CCCCN32)cc1", "note": "(stereo not given)", "Potency": "inconclusive: 25.1 µM [inhibitor, single point]"}
{"compound": "CCOc1cc(/C=N/NC(=O)c2ccc(CN3CCOCC3)cc2)ccc1OC", "activity, negative = inhibition": "inactive: -10.8%"}
{"compound": "CCOC(=O)c1cc2c(=O)n3ccccc3nc2n(Cc2ccco2)c1=NC(=O)c1ccc(OC)cc1", "Potency": "inconclusive: 10 µM [inhibitor, partial curve]"}
{"compound": "COc1ccc(CC(=O)NCC(c2ccc(N(C)C)cc2)N2CCOCC2)cc1OC", "note": "(stereo not given)", "Potency": "inconclusive: 14.1 µM [inhibitor, single point]"}
{"compound": "CCCCNC(=O)c1cnn2c(C)c(Cc3c(C)cc(C)cc3C)c(C)nc12", "Potency": "inconclusive: 25.1 µM [inhibitor, single point]"}
{"compound": "Cc1ccc(N2CC(C(=O)OCc3ccc([N+](=O)[O-])cc3)CC2=O)cc1", "note": "(stereo not given)", "Potency": "inconclusive: 0.891 µM [inhibitor, full curve]"}
{"compound": "COc1cc(NC(=O)Cn2c(=O)n(-c3ccccc3)c(=O)c3c4c(sc32)CCCC4)cc(OC)c1", "Potency": "inconclusive: 15.8 µM [activator, partial curve, poor fit]"}
{"compound": "O=C(NCc1cccc(Cl)c1)C1CCN(c2nn3cc(-c4ccc(F)cc4)nc3s2)CC1", "Potency": "inconclusive: 0.501 µM [inhibitor, full curve, poor fit]"}
{"compound": "COc1ccc(-c2cn3nc(N4CCCC(C(=O)Nc5cc(Cl)ccc5OC)C4)sc3n2)cc1", "note": "(stereo not given)", "Potency": "inconclusive: 7.94 µM [inhibitor, partial curve]"}
{"compound": "O=c1c2cc(Cl)ccc2nc(-c2ccc([N+](=O)[O-])cc2)n1O", "Potency": "inconclusive: 17.8 µM [inhibitor, partial curve]"}
{"compound": "Cc1ccc(CNC(=O)c2c(-c3ccc(F)cc3F)noc2C)o1", "activity, negative = inhibition": "inactive: -1.1%"}
{"compound": "Cc1nc2c(-c3ccccc3)c(C)[nH]n2c(=O)c1Cl", "Potency": "inconclusive: 25.1 µM [inhibitor, partial curve]"}
{"compound": "CCN(CC)c1ccc2cc(-c3nc(-c4ccccc4)no3)c(=O)oc2c1", "Potency": "inconclusive: 2 µM [activator, full curve]"}
{"compound": "O=[N+]([O-])c1ccc(N/N=C/c2cn(-c3ccccc3)nc2-c2ccccc2)cc1", "Potency": "active: 7.94 µM"}
{"compound": "Cc1ccc(NC(=O)CCCN2C(=O)/C(=C/C=C/c3ccccc3)SC2=S)cc1", "Potency": "inconclusive: 1.12 µM [inhibitor, full curve]"}
{"compound": "Cn1c(=NC(=O)c2ccco2)sc2ccccc21", "Potency": "inconclusive: 39.8 µM [inhibitor, single point]"}
{"compound": "O=C(Sc1nnc(-c2ccccc2)o1)N1c2ccccc2Sc2ccccc21", "Potency": "inconclusive: 15.8 µM [inhibitor, partial curve]"}
{"compound": "O=C1NCCN1Cc1ccccc1F", "Potency": "inconclusive: 22.4 µM [inhibitor, partial curve]"}
{"compound": "O=[N+]([O-])c1ccc(N/N=C/c2cccc(O)c2O)c(S(=O)(=O)N2CCOCC2)c1", "Potency": "inconclusive: 8.91 µM [inhibitor, partial curve]"}
{"compound": "COc1c(C)cc(Br)cc1C(=O)NC(=S)Nc1ccc(Cl)c(C(=O)O)c1", "Potency": "inconclusive: 31.6 µM [inhibitor, single point]"}
{"compound": "O=c1c(O)c(-c2cccc(O)c2)oc2ccccc12", "Potency": "inconclusive: 28.2 µM [inhibitor, partial curve, poor fit]"}
{"compound": "COc1ccc(-n2ncc(C(=O)NCc3ccc4c(c3)OCO4)c2C2CCN(C(=O)OC(C)(C)C)CC2)cc1", "activity, negative = inhibition": "inactive: -10.7%"}
{"compound": "CCOC(=O)c1ccc(NC(=O)Cc2coc3cc4c(cc23)CCC4)cc1", "Potency": "inconclusive: 2.51 µM [inhibitor, single point]"}
{"compound": "Cc1cccc(OCC(=O)Nc2cccc(C(=O)OCc3cc(=O)n4c(C)csc4n3)c2)c1", "Potency": "inconclusive: 0.501 µM [inhibitor, full curve]"}
{"compound": "COc1ccc2oc(=Nc3cccc(F)c3)c(C(N)=O)cc2c1", "Potency": "inconclusive: 2.24 µM [inhibitor, full curve]"}
{"compound": "O=c1ccc2cc(O)c(O)cc2o1", "Potency": "inconclusive: 22.4 µM [inhibitor, partial curve, poor fit]"}
{"compound": "C=C1C(=O)[C@@]23[C@H](O)C[C@@H]4C(C)(C)CC[C@H](O)[C@]4(C)[C@@H]2C[C@H](O)[C@@H]1[C@H]3O", "activity, negative = inhibition": "inactive: -16.4%"}
{"compound": "CN(C)S(=O)(=O)c1cccc(C(=O)C2=C3SC=C(c4ccccc4)N3CC2)c1", "Potency": "inconclusive: 17.8 µM [inhibitor, partial curve]"}
{"compound": "Cc1cc(C(=O)N/N=C/c2ccc(OCc3ccccc3)cc2)c(C)o1", "Potency": "inconclusive: 0.447 µM [inhibitor, full curve, poor fit]"}
{"compound": "O=C(Nc1cccnc1Cl)c1ccc(=O)oc1", "Potency": "inconclusive: 31.6 µM [inhibitor, single point]"}
{"compound": "N#CCSc1nnc(-c2sc3ccccc3c2Cl)o1", "activity, negative = inhibition": "inactive: -17.1%"}
{"compound": "Cc1cccc(NC(=S)N(C)C2CCCCC2)c1", "activity, negative = inhibition": "inactive: 7.4%"}
{"compound": "CCOC(=O)c1c(C)oc2ccc(N(C(=O)c3ccncc3)S(=O)(=O)c3ccc(F)cc3)cc12", "Potency": "inconclusive: 17.8 µM [inhibitor, partial curve]"}
{"compound": "CN(c1ccccc1)S(=O)(=O)c1nnc(NC(=O)c2cccs2)s1", "Potency": "inconclusive: 0.562 µM [inhibitor, full curve]"}
{"compound": "CN(C)CCN(C(=O)c1ccc(N2C(=O)CCC2=O)cc1)c1nc2cc3c(cc2s1)OCO3", "activity, negative = inhibition": "inactive: -7.11%"}
{"compound": "O=C1CC(c2ccccc2)CC(=O)C1Sc1ccc(Cl)cc1", "note": "(stereo not given)", "Potency": "inconclusive: 22.4 µM [inhibitor, single point]"}
{"compound": "CCOC(=O)C1=C(NC(=S)NC(=O)c2ccccc2)c2ccccc2CC1C(C)C", "note": "(stereo not given)", "activity, negative = inhibition": "inactive: -11.3%"}
{"compound": "CCN(Cc1ccccc1)S(=O)(=O)c1ccc(C(=O)Nc2nnc(C3CC3)o2)cc1", "activity, negative = inhibition": "inactive: -5.2%"}
{"compound": "Cc1cc2n(n1)CCCN2C(=O)Nc1ccc(C)c(Cl)c1", "activity, negative = inhibition": "inactive: 5.65%"}
{"compound": "CCOc1ccc(/C=N/NC(=O)c2ccccc2NC(=O)c2ccc(OC)cc2)cc1", "activity, negative = inhibition": "inactive: -7.14%"}
{"compound": "O=C(Nc1ccccc1)N1CCc2scc[n+]2-c2ccccc21", "Potency": "inconclusive: 35.5 µM [inhibitor, single point]"}
{"compound": "COc1ccc(C2=CC(c3ccc(OC)c(OC)c3)n3nnnc3N2)c(OC)c1", "note": "(stereo not given)", "Potency": "inconclusive: 35.5 µM [inhibitor, single point]"}
